Hit rate of the full screen: of about 48,000 compounds, about 550 (1.1%) were called active. Another 4% or so got no clear call; they are omitted. No stated cut-off is given here; in the data, active means potency below about 15 µM; inconclusive means mostly about 16 µM to 33 µM; inactive means weaker than that. The list shows a part of the results.
molecular target: Lysosomal acid glucosylceramidase (Homo sapiens) (UniProt P04062); assay: Glucocerebrosidase; conditions: purified enzyme, resorufin glucoside fluorescence (screen aimed at inhibitors), 20 min; series mostly up to 77 µM;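 further: the screen sought inhibitors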
UniProt P04062, sequence (P04062 whole entry, looked up): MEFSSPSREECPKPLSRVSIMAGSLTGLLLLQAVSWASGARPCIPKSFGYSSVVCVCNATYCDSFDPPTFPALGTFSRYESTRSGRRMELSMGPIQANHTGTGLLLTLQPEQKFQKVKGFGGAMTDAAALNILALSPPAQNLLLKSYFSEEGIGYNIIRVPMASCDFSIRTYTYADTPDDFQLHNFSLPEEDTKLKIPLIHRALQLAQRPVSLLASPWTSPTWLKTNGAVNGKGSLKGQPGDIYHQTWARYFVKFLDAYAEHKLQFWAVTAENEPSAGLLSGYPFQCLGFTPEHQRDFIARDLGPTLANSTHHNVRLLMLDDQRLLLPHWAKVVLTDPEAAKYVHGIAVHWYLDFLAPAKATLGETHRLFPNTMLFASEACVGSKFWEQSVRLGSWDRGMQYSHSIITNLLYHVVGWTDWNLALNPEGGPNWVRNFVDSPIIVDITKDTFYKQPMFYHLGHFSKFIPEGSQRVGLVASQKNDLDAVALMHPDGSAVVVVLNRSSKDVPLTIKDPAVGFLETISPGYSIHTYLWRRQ
Method in brief: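 Wild-type enzyme at 0.2 nM final in 50mM citric acid/KH2PO4, 10mM sodium taurocholate, 0.01% tween-20, pH 5.9, with resorufin beta-D-glucopyranoside at 30 uM final. Compounds titrated, 20 min at RT, red fluorescence read; AC50 from titration.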
Potency means the concentration at half of the fitted maximal effect.

Potency, inactive:
O=C(Cn1nc(-c2ccccc2)nc1-c1ccccc1)N1CCOCC1 > 76.9 µM, O=C(NC1CC2CCCC(C1)N2C(=O)Nc1ccccc1)c1ccncc1 (stereo not drawn) > 76.9 µM, CS(=O)(=O)N1CCc2cc(C(=O)N3CCCCC3)ccc21 > 76.9 µM, CCCOc1ccc(C(=O)N2CCCC2C(=O)O)cc1 (stereo not drawn) > 76.9 µM, NC(=O)c1ccccc1-c1nc(-c2ccccc2)no1 > 76.9 µM, CCC1Oc2ccc(C)cc2N(CC(=O)N(Cc2ccc3c(c2)OCO3)CC2CCCO2)C1=O (stereo not drawn) > 76.9 µM, CN(C)C(=O)N1CCCC(C(=O)NCc2cccs2)C1 (stereo not drawn) > 76.9 µM, CCOC(=O)c1ccccc1NC(=O)CN1C(=O)c2ccccc2S1(=O)=O > 76.9 µM, CCc1nnc(NC2=NCCC2)s1 > 76.9 µM, CC12CC(NC(=O)N1CCc1ccccc1)c1ccccc1O2 (stereo not drawn) > 76.9 µM, COc1ccc2[nH]cc(CCN=C3SCC(=O)N3C)c2c1 > 76.9 µM, CCc1ccc2[nH]cc(C(=O)OCCOC)c(=O)c2c1 > 76.9 µM, O=C(CCN1CCc2ccccc2C1)Nc1ccccc1F > 76.9 µM, O=C(c1cccs1)N1CCN(C2CCCCC2)CC1 > 76.9 µM, CN(C(=O)CN1CCC(NC(=O)C2CCCCC2)CC1)C1CCCCC1 > 76.9 µM, O=c1ccc2cc(S(=O)(=O)N3CCN(c4ccccc4)CC3)ccc2o1 > 76.9 µM, CCc1nc(SCc2cccnc2)[nH]c(=O)c1C > 76.9 µM, C/C(N)=C(/C#N)C(=O)COC(=O)C(NS(=O)(=O)c1ccc(Cl)cc1)C(C)O (stereo not drawn) > 76.9 µM, COc1ccccc1C(=O)NCCNC(=O)c1ccco1 > 76.9 µM, O=C(NCc1ccc2c(c1)OCO2)C1CC(=O)N(C2CCCC2)C1 (stereo not drawn) > 76.9 µM, CCN1CCN(C(=O)CCN2C(=O)COc3ccc(C)cc32)CC1 > 76.9 µM, CCOC(=O)N1CCN(C(=O)C2CCN(c3ncnc4c3sc3cccc(F)c34)CC2)CC1 > 76.9 µM, Cc1csc2nc3ccccc3c(=O)n12 > 76.9 µM, Cc1[nH]c(=O)[nH]c(=O)c1S(=O)(=O)N1CCC(C(=O)N2CCN(Cc3ccccc3)CC2)CC1 > 76.9 µM, c1csc(-c2nn3c(Cn4cnc5ccccc54)nnc3s2)c1 > 76.9 µM, COc1ccc(S(=O)(=O)n2nc(OC(=O)c3ccccc3)cc2N)cc1 > 76.9 µM, COc1cc2nc(NC(=O)c3ccccc3)[nH]c(=O)c2cc1OC > 76.9 µM, Cc1csc(NC(=O)c2c(O)c3c(n(CC(C)C)c2=O)CCCC3)n1 > 76.9 µM, O=C(O)Cn1nc(-c2ccc(F)cc2)oc1=O > 76.9 µM, NC(=O)C1CCN(C(c2ccccc2Cl)c2nnnn2CC2CCCO2)CC1 (stereo not drawn) > 76.9 µM, COC(=O)C1=C(C)n2nnnc2NC1c1cc2ccccc2o1 (stereo not drawn) > 76.9 µM, O=C(NC1CCN(C(=O)NC2CCCCC2)CC1)c1ccco1 > 76.9 µM, O=C(NCCOc1ccccc1)c1ccc2c(c1)OCO2 > 76.9 µM, CCOCCCn1c(=S)[nH]c2cc(C(=O)N3CCOCC3)ccc2c1=O > 76.9 µM, N#Cc1nc(Cc2ccccc2)oc1N1CCN(c2cccc(Cl)c2)CC1 > 76.9 µM, CC(CCc1ccccc1)NC(=O)C1CCN(S(=O)(=O)c2cnc[nH]2)CC1 (stereo not drawn) > 76.9 µM, O=C(Nc1ccc2nsnc2c1)c1ccc2c(c1)OCO2 > 76.9 µM, COC(=O)Nc1nnc(CCc2ccccc2)s1 > 76.9 µM, CC12CC(NC(=O)N1c1cccc(C(=O)Nc3ncn[nH]3)c1)c1ccccc1O2 (stereo not drawn) > 76.9 µM, CCCCOc1ccc(NC(=O)CSCC(=O)OCC)cc1 > 76.9 µM, CC1Oc2ccccc2N(Cc2ccccc2Cl)C1=O (stereo not drawn) > 76.9 µM, Cc1ccc(-c2ccc(CCC(=O)O)n2NC(=O)c2cccs2)cc1 > 76.9 µM, c1ccc(-c2nnc(-c3ccccn3)nn2)nc1 > 76.9 µM, Nn1c(CSc2nc3ccccc3o2)nnc1CSc1nc2ccccc2o1 > 76.9 µM, CCn1nnnc1SCC(=O)Nc1nc(-c2cccs2)cs1 > 76.9 µM, COC(=O)c1cc(Br)ccc1OC(=O)c1cccnc1 > 76.9 µM, CCOC(=O)c1c(O)c2c(n(Cc3ccco3)c1=O)CCCC2 > 76.9 µM, C=CCc1cccc2cc(C(=O)N3CCN(C(=O)OCC)CC3)c(=O)oc12 > 76.9 µM, CCOCCCNC(=O)N[C@@H](C)C(=O)OC > 76.9 µM, CC1(C)NC(=O)N(CC(O)CN2CCCCC2)C1=O (stereo not drawn), Cc1occc1-c1nnc(SCC(=O)NC(=O)NC(C)C)n1N > 76.9 µM, O=C(CN(Cc1ccco1)C(=O)CNS(=O)(=O)c1ccccc1)NCc1ccc(F)cc1 > 76.9 µM, Cc1cc(C)n2c(SCC(=O)N(C)C3CCS(=O)(=O)C3)nnc2n1 (stereo not drawn) > 76.9 µM, Cc1ccc2cc3cc(C(=O)N4CCCCCC4)oc3nc2c1 > 76.9 µM, CC(C)Oc1ccc(NC(=O)C2CCCNC2=O)cc1 (stereo not drawn) > 76.9 µM, Cc1c(Cl)cccc1Nc1nc(N)nc(CSCCO)n1 > 76.9 µM, O=C(Oc1ccc2ccccc2c1Cl)N1CCCC1 > 76.9 µM, Cc1cc2c(=O)n(NC(N)=O)c(C)nc2s1 > 76.9 µM, CCCCCOC(=O)NCCOC(=O)Nc1ccc(C(=O)OCC)cc1 > 76.9 µM, CCOc1ccc(-c2nc(S(=O)(=O)c3ccccc3)c(NCc3cccnc3)o2)cc1 > 76.9 µM, COc1ccc(-c2cc(CCCC(=O)NCCc3ccc(OC)cc3OC)no2)cc1 > 76.9 µM, Cc1ccc2c(c1)nnn2C1CCN(S(=O)(=O)c2ccc(C(=O)N(C)C)cc2)CC1 > 76.9 µM, CCC1Oc2ccccc2N(CC(=O)NCCCN2CCCCC2C)C1=O (stereo not drawn) > 76.9 µM, Cc1ccc2c(C(=O)CN3CCCC3)c(C)[nH]c2c1 > 76.9 µM, Cc1ccc(S(=O)(=O)N2Cc3ccccc3CC2C(=O)Nc2cc(C)on2)cc1 (stereo not drawn) > 76.9 µM, O=C(NCC1CCCO1)C1c2ccccc2C(=O)N1C1CCCCCC1 (stereo not drawn) > 76.9 µM, CCOC(=O)N1CCOCCOCCN(C(=O)OCC)CCOCC1 > 76.9 µM, COc1ccccc1NC(=O)Cn1c(=O)oc2ccccc21 > 76.9 µM, CCCC(=O)Nc1ccc2oc(-c3ccc(OC)c(Br)c3)nc2c1 > 76.9 µM, COc1ccc(N(Cc2cc3cc(OC)ccc3[nH]c2=O)C(=O)C2CCCO2)cc1 (stereo not drawn) > 76.9 µM, CS(=O)(=O)N(Cc1ccccc1)c1ccc(C(=O)N2CCOCC2)cc1 > 76.9 µM, CCCSc1oc(-c2ccco2)nc1S(=O)(=O)c1ccccc1 > 76.9 µM, CCOC(=O)C1CCN(Cc2coc3ccc(Cl)cc3c2=O)CC1 > 76.9 µM, O=C(O)Cn1cccc1C(=O)c1ccccc1 > 76.9 µM, CC1CCC/C(=C\Nc2ccc3c(c2)OCO3)C1=O (stereo not drawn) > 76.9 µM, CC#CCN(CC#CC)S(=O)(=O)c1ccc(S(=O)(=O)N2CCOCC2)cc1 > 76.9 µM, COc1ccc(CCC(=O)NCc2cnn(C)c2)cc1 > 76.9 µM, CCOC(=O)c1c(C)[nH]c(C(=O)CN2C(=O)NC(CC)(c3ccccc3)C2=O)c1C (stereo not drawn) > 76.9 µM, CC(c1ccco1)N(C(=O)COc1ccc(Cl)cc1Cl)c1ccccn1 (stereo not drawn) > 76.9 µM, Cc1ccccc1CN1CCN(CC(=O)NCc2ccccc2)C1=O > 76.9 µM, N#Cc1ccsc1NC(=O)COc1ccc(-c2nnco2)cc1 > 76.9 µM, COC(=O)c1ccc(NC(=O)c2ccc3c(c2)OCO3)cc1 > 76.9 µM, CCn1cc(C(=O)NCc2ccccn2)c(=O)c2cc(S(=O)(=O)N3CCCCC3)ccc21 > 76.9 µM, O=C(O)c1[nH]c2ccccc2c1CC(=O)N1CCOCC1 > 76.9 µM, COc1ccc2[nH]c(=O)c(C(c3nnnn3C(C)(C)C)N(Cc3ccco3)CC3CCCO3)cc2c1 (stereo not drawn) > 76.9 µM, Cc1oc2c(C)c3oc(=O)c4c(c3cc2c1C)CCC4 > 76.9 µM, O=C(CC1Nc2ccccc2NC1=O)NC1CCCCC1 (stereo not drawn) > 76.9 µM, CCCn1cc(S(=O)(=O)CC(=O)NC2CCCCC2)c2ccccc21 > 76.9 µM, COc1cccc(NC(=O)c2ccc3c(c2)N(CC(=O)N2CCCCC2)C(=O)C(C)(C)O3)c1 > 76.9 µM, COc1ccccc1N(CC(=O)Nc1cc(C)on1)S(=O)(=O)c1cccs1 > 76.9 µM, COC(=O)c1ccc(Nc2cc(C)nc3ncnn23)cc1 > 76.9 µM, O=c1cc(CSc2ccc(Cl)cc2)nc2nc[nH]n12 > 76.9 µM, CC(NC(=O)c1csc2ccccc12)C1CCCO1 (stereo not drawn) > 76.9 µM
